In the supplement of paper PMC11417369:
± gives the standard deviation of the averaged measurements. This is one part of the list.

What follows are sequences tested on PfAP2-I AP2 domain 3 (GST-tagged) (assay: gcPBM binding intensity (ln(normalized median fluorescence intensity)); higher = stronger DNA binding).
How it was run: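 An Agilent 4 × 180k array of primer-extended double-stranded 36-bp intergenic genomic probes, with negative controls, was incubated for 1 h with GST-tagged P. falciparum DNA-binding domains expressed in E. coli. Alexa488 anti-GST antibody detected bound protein, scanned at 488 nm. Binding intensity is the highest Masliner-normalised natural-log median intensity across replicate spots of either probe orientation.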

Sequence	gcPBM binding intensity (ln)
TAAACAGATATATTTTGTACATATTGTATATTTTGT [XGTACX_site713]	7.38 ± 0.42
TATATTAATGTTCATAGTACGTATGATTAGGAAAAA [XGTACX_site616]	8.09 ± 0.66
ACATATATGTATAATACACACACTAATATATAATTG [CACACA_site1966]	7.86 ± 0.42
ATTTAAAAAAAAACGGAATTTTTTTTTTTTTTAAAG [XGTACX_negctrl_site91]	7.33 ± 0.41
ATATTCATATATTTACGTACATACATTTATATATTT [XGTACX_site7644]	8.04 ± 0.54
GGAAAGACAGTTCACAGTACCCAGGAAATCTGCGGA [XGTACX_site4933]	8.54 ± 1.2
TTTAGTTTTTATATAGCACACATATTGTGATTATGT [CACACA_site8316]	8.96 ± 0.16
AATTTATAAAAGAAGAGGACACATATAAATATAAAT [XGTACX_site59]	7.75 ± 0.62
TATTAATGATAAGAATATTTTATATGATACATGCAT [CACACA_negctrl_site923]	7.46 ± 0.68
TATCTTTATATATAGTGTACACATTAAACAAATCTC [XGTACX_site7381]	8.22 ± 0.25
TATAAATAAATATGTACACACATATATACCTTTCAT [CACACA_site7291]	7.82 ± 0.28
AATAATTAACAAAAAAAAAAAAAAAAAAAAAAAAAA [GTGCAC_negctrl_site255]	8.22 ± 0.71
TATGTATTATATATTTGTACTCATTCTAATTCCTTC [XGTACX_site7294]	7.66 ± 0.45
TCTATACCTATTCTTACACACATATGTATAAATATA [CACACA_site6407]	8.12 ± 0.5
TTGACAACTCTTTTCATACACACAAAAAAAAAAAAA [CACACA_site2362]	7.95 ± 0.57
ACTAAAAAAATAAACACACAGATTTATATAATATAT [CACACA_site4884]	7.75 ± 0.38
TACAACCTTTAGACAAGTACAAGAATTATATGTGGC [XGTACX_site4581]	7.99 ± 0.46
TGTATATCACATGAGAGGTGGAGATGGGGATAAATA [CACACA_negctrl_site1148]	7.96 ± 0.52
ATACAATTCTTACATTGTACTTTTTTTTTTTATCAC [XGTACX_site6327]	7.8 ± 0.65
ACAAAATATATAGACACACAAACACAAATATGTTTT [CACACA_site3016]	7.66 ± 0.43
TAATACAGATTAAAAGGTACACTTATTTGGTATTAT [XGTACX_site4966]	7.79 ± 0.33
TTAATATGAATTATTACATGCAACTAAATATATTTA [TGCATGCA_site490]	7.7 ± 0.48

Sequence	gcPBM binding intensity (ln)
AATAAAAAAATATGAAATTATGACATATAGCATTTG [TGCATGCA_negctrl_site160]	7.43 ± 0.56
TACATAAATTAAAACACACACACACCCAAAAAAAAA [CACACA_site2261]	8.355 ± 0.021
GTGTATATTATTTTATCACACATGTACATATGTTAA [CACACA_site5473]	7.89 ± 0.49
AAAAAATAAAAAGATACACACATATGTATAATATAC [CACACA_site1496]	7.78 ± 0.69
GTTAAAAGAAAAATATGTACATAAAAAAATTAGAAA [XGTACX_site578]	8.05 ± 0.38
TTTTCAATTAAAAAAAAATTATATTTTATTATTACA [CACACA_negctrl_site142]	7.13 ± 0.44
AAGATGGTAAAGAATTGTACGCGCATATATATATTT [XGTACX_site3904]	8.03 ± 0.56
TATATATATATATGATGTACACATTTTATTATTTGT [XGTACX_site1147]	9.28 ± 0.33
CTCTTGTTTCCATATAGTACGTAATAATATATACAA [XGTACX_site2428]	8.39 ± 0.18
AATTTGATAATATCATGTACATGAAAGAATTCATGA [XGTACX_site8463]	7.46 ± 0.52
TATTATATTTTTATTTGTACGTAAAATTAAGTTATG [XGTACX_site2405]	8.02 ± 0.014
AAAAATATAAACAAACGTACGAAGTGATGATATATT [XGTACX_site2242]	7.68 ± 0.83
AAAAAAAAAAAACACACACACACACCCATATATAAA [CACACA_site1170]	7.96 ± 0.48
ACATAAAATTATTATACATGCATATTTAATTTTTTC [TGCATGCA_site353]	7.83 ± 0.75
TGTAGTCTGGAGAAGAGTACATAGTATCTGGTAGCT [XGTACX_site2029]	7.9 ± 0.62
GAATTGTATTGGTACTGTACAATTAAATTAAAAAAA [XGTACX_site1891]	7.72 ± 0.62
TTTTTTGTTAAGTTGGTGCAAACAATAGTTATTGAC	10.6 ± 0.76
GGAGCACCCAGACACACACACACATATATATATATA [CACACA_site336]	9.35 ± 0.42
TATATCTACTACACACGTACACAAAATAAGATACCT [XGTACX_site7886]	8.09 ± 0.55
ATATAGGTAAAAAGTATACACACGTTGACACATTCT [CACACA_site1199]	7.7 ± 0.67
ATAATATAATTTTGCAGTACCCAAAAAACAAAATAA [XGTACX_site4827]	8.23 ± 0.35
AATATGATATATATATGTACATATATATAATATAAT [XGTACX_site3072]	7.76 ± 0.45
